The other results are listed elsewhere or left out.
How the values were obtained:
HSkMC = human skeletal muscle cells; experiment: cytotoxicity call (relative viability < 0.9); conditions: 10 µM
HepG2 = experiment: cytotoxicity call (relative viability < 0.9); conditions: 10 µM
S. aureus RN4220 = experiment: growth inhibition call (relative growth <= 0.2); conditions: 50 µM

SMILES	cytotoxicity call (HSkMC)	cytotoxicity call (HepG2)	growth inhibition call (S. aureus RN4220)
Cc1noc(C)c1NC(=O)Nc1ccc2c(c1)C(=O)N([C@H](C)CO)C[C@H](C)[C@@H](CN(C)C(=O)Nc1ccc3c(c1)OCO3)OCCCC[C@H](C)O2	inactive	inactive	inactive
C[C@@H]1CN([C@H](C)CO)S(=O)(=O)c2ccc(C#CC3(O)CCCC3)cc2O[C@H]1CN(C)C(=O)Cc1ccncc1	inactive	inactive	inactive
COC(=O)[C@H]1CCCNC1=O	inactive	inactive	inactive
C[C@@H]1CN([C@H](C)CO)C(=O)c2cc(NC(=O)Nc3ccc(F)cc3)ccc2O[C@@H]1CN(C)S(C)(=O)=O	inactive	inactive	inactive
C[C@H](CO)N1C[C@H](C)[C@@H](CN(C)Cc2ccc(Oc3ccccc3)cc2)Oc2c(NS(=O)(=O)c3ccc(Cl)cc3)cccc2C1=O	inactive	inactive	inactive
C[C@H](CO)N1C[C@H](C)[C@H](CN(C)CC2CC2)OCCCC[C@H](C)Oc2ccc(NC(=O)Nc3ccccc3)cc2C1=O	inactive	inactive	inactive
COc1ccccc1S(=O)(=O)N[C@H]1C=C[C@H](CC(=O)N2CCN(C)CC2)O[C@@H]1CO	inactive	inactive	inactive
C[C@H]1CN([C@@H](C)CO)C(=O)c2cc(-c3ccc(C(=O)N(C)C)cc3)cnc2O[C@H]1CN(C)C(=O)CN(C)C	inactive	inactive	inactive
O=C(NCCO[N+](=O)[O-])c1cccnc1	inactive	inactive	inactive
COCC#Cc1ccc([C@@H]2[C@H](CO)N3C(=O)CN(C(=O)c4ccncc4)C[C@@H]23)cc1	inactive	inactive	inactive
C[C@@]1(C(=O)O)NCCc2cc(O)c(O)cc21	inactive	inactive	inactive
O=C(O)CNC(=O)c1cc(=O)[nH]c(=O)[nH]1	inactive	inactive	inactive
CC(C)NC(=O)N(C)C[C@@H]1Oc2ccc(NC(=O)Nc3ccc4c(c3)OCO4)cc2C(=O)N([C@H](C)CO)C[C@@H]1C	inactive	inactive	inactive
C[C@@H]1CCCCO[C@H](CN(C)Cc2ccc(C(F)(F)F)cc2)[C@H](C)CN([C@@H](C)CO)C(=O)c2cc(NS(=O)(=O)c3cccs3)ccc2O1	inactive	active	inactive
Cc1cccc(C)c1NC(=O)c1cc(S(N)(=O)=O)c(Cl)cc1O	inactive	inactive	inactive
C[C@H](CO)N1C[C@H](C)[C@@H](CN(C)Cc2ccc3c(c2)OCO3)Oc2ccc(NS(=O)(=O)c3cn(C)cn3)cc2C1=O	inactive	inactive	inactive
Cc1noc(C)c1NC(=O)N(C)C[C@@H]1Oc2ccc(NC(=O)Nc3cccc4ccccc34)cc2C(=O)N([C@@H](C)CO)C[C@@H]1C	inactive	inactive	inactive
C[C@H](CO)N1C[C@H](C)[C@@H](CN(C)CC2CCCCC2)Oc2ccc(NC(=O)Nc3ccc(C(F)(F)F)cc3)cc2C1=O	inactive	inactive	inactive
Nc1ncnc(NCc2cccnc2)c1[N+](=O)[O-]	inactive	inactive	inactive
C[C@H](CO)N1C[C@H](C)[C@H](CN(C)C(=O)C2CCCCC2)OCCCC[C@H](C)Oc2ccc(NC(=O)Nc3ccccc3)cc2C1=O	inactive	inactive	inactive
CCS(=O)(=O)Nc1ccc2c(c1)C(=O)N(C)C[C@@H](OC)[C@H](C)CN(Cc1ccccn1)[C@H](C)CO2	inactive	inactive	inactive
O=C(CCCCCNC(=O)OC[C@]12N=C3SCc4ccccc4CN3[C@H](c3ccccc3O1)[C@H]2COC(=O)c1ccccc1)NO	inactive	inactive	inactive
C[C@@H]1CN([C@H](C)CO)C(=O)Cc2cc(NC(=O)Nc3cccc4ccccc34)ccc2O[C@H]1CN(C)C(=O)Nc1ccccc1	inactive	inactive	inactive
C[C@@H]1CCCCO[C@H](CN(C)S(=O)(=O)c2ccccc2)[C@@H](C)CN([C@H](C)CO)C(=O)c2cc(NS(=O)(=O)c3cn(C)cn3)ccc2O1	inactive	inactive	inactive
Cc1ccc(-c2cnc3c(c2)C(=O)N([C@H](C)CO)C[C@@H](C)[C@@H](CN(C)C(=O)Cc2ccncc2)O3)cc1	inactive	inactive	inactive
C[C@H]1CN([C@@H](C)CO)C(=O)c2cc(NC(=O)Cn3cnnn3)ccc2O[C@@H]1CN(C)Cc1ccncc1	inactive	inactive	inactive
C[C@H](CO)N1C[C@H](C)[C@H](CN(C)C(=O)Nc2cccc3ccccc23)OCCCC[C@H](C)Oc2ccc(NC(=O)c3ccncc3)cc2C1=O	inactive	inactive	inactive

SMILES	cytotoxicity call (HSkMC)	cytotoxicity call (HepG2)	growth inhibition call (S. aureus RN4220)
Cc1noc(C)c1NC(=O)Nc1ccc2c(c1)C(=O)N([C@@H](C)CO)C[C@H](C)[C@@H](CN(C)S(=O)(=O)c1cccs1)OCCCC[C@@H](C)O2	inactive	inactive	inactive
C[C@@H]1CN([C@@H](C)CO)C(=O)Cc2cc(NC(=O)c3ccncc3)ccc2O[C@@H]1CN(C)Cc1ccc(-c2ccccc2)cc1	inactive	inactive	inactive
C[C@@H]1CN([C@@H](C)CO)C(=O)Cc2cc(NC(=O)CCN3CCOCC3)ccc2O[C@@H]1CN(C)Cc1ccncc1	inactive	inactive	inactive
C[C@H](CO)N1C[C@H](C)[C@H](CN(C)Cc2ccc(-c3ccccc3)cc2)OCc2ccccc2-c2c(n(C)c3ccccc23)C1=O	active	inactive	inactive
C[C@H]1CN([C@@H](C)CO)C(=O)CCCn2nncc2CO[C@H]1CN(C)C(=O)Nc1cccc2ccccc12	inactive	inactive	inactive
COC(=O)C1=C2CC[C@H](CO)NC(=O)N[C@H](Cc3ccccc3)C(=O)NCc3cn(nn3)C[C@H](Cc3ccccc3)NC(=O)c3oc(c(C(=O)OC)c3C(=O)OC)CC[C@H](CO)NC(=O)N[C@H](Cc3ccccc3)C(=O)NCc3cn(nn3)C[C@H](Cc3ccccc3)NC(=O)C(=C1C(=O)OC)O2	inactive	inactive	inactive
CC(C)NC(=O)Nc1ccc2c(c1)C(=O)N([C@@H](C)CO)C[C@@H](C)[C@H](CN(C)C(=O)Nc1ccc(C(F)(F)F)cc1)OCCCC[C@@H](C)O2	inactive	active	inactive
C[C@@H]1CN([C@H](C)CO)C(=O)Cc2cc(NC(=O)Cc3ccccc3)ccc2O[C@@H]1CN(C)Cc1ccc(Oc2ccccc2)cc1	inactive	active	inactive
O=C(Nc1ccc(Oc2ccc(Cl)cc2)c(Cl)c1)c1cc(I)cc(I)c1O	active	active	inactive
C=CCOC(=O)[C@@H]1[C@H]2C(=O)O[C@H](c3ccccc3)[C@H](c3ccccc3)N2[C@H](c2ccc(OCCOC(=O)[C@H]3C[C@H]4C(=O)N[C@@H](CCCCN(C)C)C(=O)N4[C@H]3c3cccc(OCCO)c3)cc2)[C@@]12C(=O)Nc1ccccc12	inactive	inactive	inactive
CC(C)NC(=O)N(C)C[C@@H]1Oc2ccc(NC(=O)CCN3CCOCC3)cc2CC(=O)N([C@H](C)CO)C[C@H]1C	inactive	inactive	inactive
C[C@@H]1CN([C@@H](C)CO)C(=O)Cc2cc(NC(=O)Cc3cn(C)c4ccccc34)ccc2O[C@@H]1CN(C)CC1CCCCC1	inactive	active	inactive
Cc1noc(C)c1NC(=O)Nc1ccc2c(c1)C(=O)N([C@H](C)CO)C[C@@H](C)[C@@H](CN(C)Cc1ccc(Cl)c(Cl)c1)OCCCC[C@H](C)O2	active	active	inactive
Cc1ccc(S(=O)(=O)N(C)C[C@H]2Oc3ccc(NC(=O)C4CC4)cc3CC(=O)N([C@@H](C)CO)C[C@H]2C)cc1	inactive	inactive	inactive
Cc1ccc(S(=O)(=O)N(C)C[C@@H]2OCCCC[C@H](C)Oc3ccc(NS(C)(=O)=O)cc3C(=O)N([C@@H](C)CO)C[C@H]2C)cc1	inactive	inactive	inactive
C[C@H]1CN([C@@H](C)CO)C(=O)c2cc(NC(=O)NC3CCCCC3)ccc2O[C@@H]1CN(C)C(=O)Nc1cccc2ccccc12	inactive	inactive	inactive
C[C@H]1CCCCO[C@H](CN(C)C(=O)c2ccccc2)[C@@H](C)CN([C@@H](C)CO)C(=O)c2cc(NC(=O)Nc3ccccc3)ccc2O1	inactive	inactive	inactive
C[C@H]1CN([C@@H](C)CO)C(=O)c2cccc(NC(=O)c3ccncc3)c2O[C@H]1CN(C)Cc1ccc(Oc2ccccc2)cc1	inactive	inactive	inactive
COc1ccc(NC(=O)Nc2cccc3c2O[C@H](CN(C)Cc2ccc(Cl)c(Cl)c2)[C@H](C)CN([C@H](C)CO)C3=O)cc1	inactive	inactive	inactive
CCOC(=O)[C@H]1CNC(=S)N[C@@]1(C)O	inactive	inactive	inactive
C[C@@H]1CCCCO[C@@H](CN(C)S(=O)(=O)c2ccccc2)[C@H](C)CN([C@@H](C)CO)C(=O)c2cc(NC(=O)Nc3ccc(C(F)(F)F)cc3)ccc2O1	inactive	inactive	inactive
C[C@@H]1CCCCO[C@H](CN(C)C(=O)Nc2cccc3ccccc23)[C@@H](C)CN([C@@H](C)CO)C(=O)c2cc(NC(=O)c3ccccc3)ccc2O1	inactive	inactive	inactive
COCC(=O)N[C@H]1C=C[C@@H](CC(=O)N2CCCCC2)O[C@H]1CO	inactive	inactive	inactive
C[C@@H]1CN([C@H](C)CO)C(=O)c2cc(NS(=O)(=O)c3cccs3)ccc2O[C@H]1CN(C)CC1CC1	inactive	inactive	inactive
CS(=O)(=O)Nc1ccc2c(c1)[C@@H]1C[C@@H](CC(=O)NCC3CC3)O[C@@H](CO)[C@@H]1O2	inactive	inactive	inactive
COc1ccc(NC(=O)N(C)C[C@@H]2Oc3ccc(NC(=O)CCN4CCOCC4)cc3C(=O)N([C@@H](C)CO)C[C@H]2C)cc1	inactive	inactive	inactive

Source: the antibiotic and cytotoxicity screens of Wong et al. (2023)
